From PubChem BioAssay AID1745845 (National Center for Advancing Translational Sciences (NCATS), 2022)
The whole screen tested about 360,000 compounds, of which about 2,600 (0.72%) were called active. The inconclusive results got no clear call from the source; some entries with a clear call stand among them for comparison. The call rests on the fitted dose curve; in most records, active means well fitted inhibition curve with a large enough effect; inconclusive means small, poorly fitted or top-dose-only effect; inactive means no such curve, though single readings can be large or run the other way. Potencies beside an inconclusive call are fits to weak or partial responses and may not hold up.

experiment: Primary qHTS for Inhibitors of ATXN expression; conditions: HEK-293 ATXN2-luciferase reporter, luminescence, 24 h; activity change, negative = inhibition: at 57 µM (top of the series); further: nearly all actives have a fitted effect of over 55% in size
How it was run: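 qHTS (up to 57 uM final) was run with 24 h compound exposure of reporter cells at 37 °C. Each well was multiplexed: SteadyGlo luminescence measured ATXN2-luciferase expression after a fluorogenic Gly-Phe-AFC viability readout (25 uM final).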
On the % scale 0 is the no-effect control and ±100 the full control effect; potency means the concentration at half of the fitted maximal effect; tags describe the fitted curve by direction and shape.

Which “activity change, negative = inhibition” value does the source give for `Cc1cc(Br)ccc1OCC(=O)N(Cc1nc(-c2ccccc2)no1)C(C)C` here?
The value was inactive: 2.84%.

For `CCOC(=O)c1c(NC(=O)COc2ncnc3sccc23)sc2c1CCC2`, which “activity change, negative = inhibition” value is on record?
The value was inactive: 1.85%.

Which “activity change, negative = inhibition” value does the source give for `CCCC1=C(C(=O)OCC)C(/C=C/c2ccccc2)n2ncnc2N1` (stereo unspecified) here?
The value was inactive: -23.7%.

Which Potency does the source give for `O=C1CSC2(C(=O)N(Cc3ccccc3F)c3ccccc32)N1c1cccc(C(F)(F)F)c1` (stereo unspecified) here?
Its Potency is inconclusive: 31.6 µM [inhibitor, single point].

With `N=c1n(CCCOc2ccccc2Cl)c2ccccc2n1CC(N)=O` as the molecule, how does the Potency read?
Its Potency is inconclusive: 39.8 µM [inhibitor, single point].

Which Potency does the source give for `Cc1ccc(NS(=O)(=O)c2ccc(-c3cnc(C4CC4)o3)cc2)cc1N(C)C` here?
Its Potency is inconclusive: 1.78 µM [inhibitor, full curve, poor fit].

With `COc1ccccc1C(CCN(Cc1ccccc1)C(C)=O)c1ccco1` (stereo unspecified) as the molecule, how does the Potency read?
Its Potency is inconclusive: 14.1 µM [inhibitor, partial curve, poor fit].

Which Potency does the source give for `Cc1ccc(-n2nc3c(N4CCC(C(=O)NCc5ccc(C)o5)CC4)nnc(C)c3c2C)cc1` here?
Its Potency is inconclusive: 35.5 µM [inhibitor, partial curve, poor fit].

With `O=C(Nc1ccc(Br)cc1)c1cc(-c2cccs2)nc2ccccc12` as the molecule, how does the Potency read?
The Potency was inconclusive: 17.8 µM [inhibitor, partial curve, poor fit].

Which “activity change, negative = inhibition” value does the source give for `O=C(O)c1ccccc1-c1ccc(C=c2sc3nc4cc(Br)cnc4n3c2=O)o1` here?
Its value is inactive: 1.31%.

Which Potency does the source give for `Cc1cnc(NC(=O)c2cc3c(s2)CCCC3)s1` here?
The Potency was inconclusive: 22.4 µM [inhibitor, single point].

For `CC(C)(C)Nc1c(C2CCNCC2)nc2c(OCc3ccccc3)cccn12`, which Potency is on record?
The Potency was inconclusive: 25.1 µM [inhibitor, partial curve, poor fit].

Which Potency does the source give for `CN1CCC(N(C)C(=O)c2ccc(Cl)c(S(=O)(=O)N3CCc4ccccc43)c2)CC1` here?
Its Potency is inconclusive: 39.8 µM [inhibitor, single point].

Which “activity change, negative = inhibition” value does the source give for `CCC(C)NC(=S)N1CCN(Cc2ccccc2)CC1` (stereo unspecified) here?
The value was inactive: 0.275%.

For `COC(=O)C1=C(C)N(Cc2ccccc2)C(=NCCc2c[nH]c3ccccc23)N[C@H]1c1cccc(F)c1`, which Potency is on record?
The Potency was inconclusive: 35.5 µM [inhibitor, single point].

With `CC(=NNC(=S)SCc1ccccc1)c1ccccn1` as the molecule, how does the Potency read?
Its Potency is inconclusive: 0.316 µM [inhibitor, full curve, poor fit].

For `CCN(CCCNC(=O)CC(C(=O)N1CCc2ccccc21)n1ccnc1)c1cccc(C)c1` (stereo unspecified), which “activity change, negative = inhibition” value is on record?
The value was inactive: -0.225%.

For `COc1ccc(S(=O)(=O)Nc2ccc3c(c2)C(=O)N([C@H](C)CO)C[C@H](C)[C@@H](CN(C)C(=O)Nc2ccc4c(c2)OCO4)O3)cc1`, which “activity change, negative = inhibition” value is on record?
Its value is inactive: 4.41%.

Which Potency does the source give for `CCc1cc(-c2n[nH]c(C)c2-c2ccc3c(c2)OCCO3)c(O)cc1O` here?
The Potency was active: 6.11 µM.

Which Potency does the source give for `Cc1ccccc1NC(=O)c1cn(-c2ccccc2)nc1-c1ccccc1` here?
Its Potency is “inactive”.

With `Cc1cccc(COCC(CC(C)C)N2CCN(C(=O)c3ccc(C(C)(C)C)cc3)CCC2=O)c1` (stereo unspecified) as the molecule, how does the Potency read?
The Potency was inconclusive: 39.8 µM [inhibitor, single point].

Which “activity change, negative = inhibition” value does the source give for `C/C(=N\NC(=O)c1nc2ccccn2c1C)c1cc2ccccc2o1` here?
The value was inactive: -4.33%.

Which Potency does the source give for `N#C/C(=C/c1ccc(OCc2ccccc2)cc1)C(=O)NC1CCCCC1` here?
Its Potency is inconclusive: 39.8 µM [inhibitor, single point].

Which Potency does the source give for `COc1cccc(Nc2nc(C(N)Cc3ccc(Cl)cc3)cs2)n1` (stereo unspecified) here?
The Potency was active: 25.1 µM.

With `CCN(CCS(=O)(=O)c1ccc(Br)cc1)Cc1nc2ccccc2c(=O)[nH]1` as the molecule, how does the “activity change, negative = inhibition” value read?
The value was inactive: -17.9%.

For `COc1ccc(CCNC(=S)c2ccccc2)cc1OC`, which “activity change, negative = inhibition” value is on record?
The value was inactive: -19.1%.

For `O=C(CN1C(=O)c2ccccc2S1(=O)=O)c1ccc(Cl)cc1Cl`, which Potency is on record?
The Potency was active: 2 µM.

Which Potency does the source give for `CCc1cc(-c2n[nH]c(C)c2-c2ccccc2Cl)c(O)cc1OC` here?
Its Potency is inconclusive: 31.6 µM [inhibitor, single point].

Which Potency does the source give for `Cc1oc(-c2ccc3c(c2)OCCO3)cc1C(=O)O` here?
The Potency was active: 7.08 µM.

Which “activity change, negative = inhibition” value does the source give for `Cc1ccc(NCCC(=O)c2ccccc2)cc1Cl` here?
The value was inactive: 27.8%.

For `Cc1ccc(S(=O)(=O)N(C)C[C@H]2Oc3c(NC(=O)Nc4cccc5ccccc45)cccc3C(=O)N([C@@H](C)CO)C[C@@H]2C)cc1`, which Potency is on record?
The Potency was inconclusive: 7.94 µM [inhibitor, full curve].

With `Cc1cccc(OCCCCNCc2ccccc2)c1` as the molecule, how does the “activity change, negative = inhibition” value read?
Its value is inactive: -24.9%.

For `COc1cnn(-c2ccccc2)c(=O)c1SCc1ccc(Cl)cc1Cl`, which “activity change, negative = inhibition” value is on record?
The value was inactive: -9.37%.

Which “activity change, negative = inhibition” value does the source give for `C=CC[C@@H](CC(=O)N[C@H](CO)Cc1ccccc1)C(=O)N[C@H](COC(=O)[C@@H](CC=C)Cc1ccc(F)cc1)Cc1ccccc1` here?
Its value is inactive: 5.07%.

With `S=C(NN=C(c1ccccc1)c1ccccn1)N(Cc1ccccn1)Cc1ccccn1` as the molecule, how does the Potency read?
Its Potency is active: 0.891 µM.

Which “activity change, negative = inhibition” value does the source give for `Cc1ccc(S(=O)(=O)N2CCN(C(=O)c3nn(C(C)C)c(=O)c4ccccc34)CC2)cc1C` here?
The value was inactive: -17.6%.

With `COC(=O)[C@@]12CCCCN1[C@H](c1ccc(-c3ccccc3)cc1)[C@@H]1C(=O)N(C)C(=O)[C@@H]12` as the molecule, how does the Potency read?
Its Potency is inconclusive: 1 µM [inhibitor, full curve, poor fit].

With `C=CCOc1ccccc1CNc1ccc2c(c1)OCCO2` as the molecule, how does the Potency read?
Its Potency is inconclusive: 37.7 µM [inhibitor, single point].

For `N#CC1=C2N=C(N)c3ccccc3N2C2=C(C(=O)CCC2)C1c1ccc(Cl)cc1` (stereo unspecified), which Potency is on record?
The Potency was inconclusive: 31.6 µM [inhibitor, single point].

With `CC(=O)c1cc(-c2ccccc2)n(CC(=O)N2CCC(C)CC2)c1C` as the molecule, how does the “activity change, negative = inhibition” value read?
Its value is inactive: 3.09%.

Which Potency does the source give for `Clc1cccc(CN2CCc3c([nH]c4ccccc34)C2)c1` here?
The Potency was inconclusive: 39.8 µM [inhibitor, single point].

With `CCC(C)NC(=O)Cn1cccc1C(=O)c1ccccc1` (stereo unspecified) as the molecule, how does the “activity change, negative = inhibition” value read?
The value was inactive: -14.9%.

With `Cc1cc(C)cc(NS(=O)(=O)c2ccc(NC(=S)NC(=O)c3ccc(Br)o3)cc2)c1` as the molecule, how does the Potency read?
Its Potency is inconclusive: 25.1 µM [inhibitor, single point].

For `COc1cc(O)c(CC=C(C)C)c(O)c1C(=O)CCc1ccc(O)cc1`, which Potency is on record?
The Potency was inconclusive: 14.1 µM [inhibitor, partial curve].

For `COC(=O)c1cc(S(=O)(=O)N2CCC(C(N)=O)CC2)oc1C`, which Potency is on record?
Its Potency is inconclusive: 0.336 µM [inhibitor, full curve, poor fit].

Which “activity change, negative = inhibition” value does the source give for `O=C(Nc1cc(F)c(Br)cc1F)c1ccc(Cl)cc1` here?
The value was inactive: 14.2%.
